These results are taken from the supplement of paper PMC12632987.

First the molecules themselves.
B1: GBRAP_160_4180 (protein)
chain: MEKVEKAEKEIEEIFKEAIEMMKGETAENRANIVDVAFGEILLLLEEEGLLTDELGEEIDEIEDEVVSTILENPDLTDEELAKLIEEAKKKIIEALKKSS
B2: GBRAP_14_3788 (protein)
chain: MEEKLALVDETKADLKRDARLIAPEKAAEIEAAIDEEMEKLKAEIKATGDAKAAVEKTKERLLKRLAEILADAPEEDRAALLAAADNEMAELELELEELD
B3: GBRAP_9_7157 (protein)
chain: MEELIEKVEEVIEDMLEEIKEVVPEEVKPAVEKRREEVKKRLEELGEDENATEEEIIEEAERLVRETLEEMKKLVDPETAKIVEAIALTAELEIEEIGEE
B4: GBRAP_52_6135 (protein)
chain: MRERLRALAREILELVRAGRLEEARALARELVESLNDEELREFAEEFARVVEELPPEELDAAATALDILVDAMEEAGVDESLISELIGKGTRAMYRVEQR
B5: GBRAP_160_4441 (protein)
chain: SPELEKAIEDFDEEAEFVKELIDEVSVEDFANFLDAEISSVALELLEEGLISEEAFDKIMEIIDEAVKTLLENPDMSIEEKKKLVDEMLEKIKEVLKEES
B6: GBRAP_139_3741 (protein)
chain: MPPEEIVAAARAAARELRDDPDALADYLVERIAAVDEETAEAITRAVMEALADLPVERILEIVDKVLERLEEAGVPEDKRDVVEAVLNGGLARHAAAEEA
B7: GBRAP_184_5256 (protein)
chain: KTLERVVEVKNVEELKAKMAEIAKEALAEKADVLILLEVEELTKEMIDALFDAIKAMKAAGYTGRVTIGITADLTEEMIDYVLEKADEAGVSVALAIPEE
B8: GBRAP_128_3251 (protein)
chain: PNPEVVKYAEEVVERLKKANPEEARKIAEEFAEYLLTISTEEAETAIEVVEKNLSKLSVEHLEILADVLREARPKFSPEKANLVAGLEVEALNEAEEKEE
B9: GBRAP_26_5453 (protein)
chain: IEELLKEFLEKLKKAAEELLDPELATLANASFENHIGLADLELEENKGNLEKMKQVVLDMKEDILEDLKDLGVPEEVLKKLKEVIDEESEKILKKLEEES
B10: GBRAP_52_6258 (protein)
chain: MREEMRKKAEEIFELVKEGKLEEARKLARELAETSNEEELEIFIDEMAKLALESKKEEIEDLEKLAELVAEELEEAGKPEEIVSLFEARVYGAIYKTSLK
B11: GBRAP_139_3757 (protein)
chain: ARAAAIEATAREFFARMQEDFEAAVKETAAYLASLSDEDRLALTEALARIAAKEGEELAERLKEALTAEVLKLTKDEDVALAIEGTMETAIAREEMRREA
B12: GBRAP_196_5419 (protein)
chain: SLVQEARKINEEAEKRLKATDKEVTVVVSTGDLERHREAVEKAIDYAKEHPDELVLLVFMDDLETALEAARYAKELAEKEGVDLVVEVASRELEEHPDEE
B13: GBRAP_83_6905 (protein)
chain: MKVVAVNITPENGAERVAEAVDIVVEEGWDLEVLVGTSPEEVAAVEDLFDRLNASGKKVNVTVAVVGRDAAAVAAAAARIRAAIAAQPNVVLEELHEEVL
B14: GBRAP_160_4811 (protein)
chain: MEKAEKLLEEAEEDLLETAEAAADLPVADLARLLEAEGYTDILEFEEELNISDETEDKLAAVVDELVARLLANPDLSREERLALVREAAEKMREIVLEEV
B15: GBRAP_64_6480 (protein)
chain: SEEIEKAWDELLDAVTRLLEAFERELPELAPRAQAILDKVKEAKTLSLEEKLDKVLEVADELVALFNDPRVSEELKDLIAEALDKAFALAALLAEAEEEE
B16: GBRAP_11_2926 (protein)
chain: KKEEILKIAELADKLAKAVEKLIEEGVDNEELRKEAEKLLKELTELVKKYGDEADKKDAEIMKELWEKAKEDPENAEEYLEELRNEARVLSGQYLLKAEE
B17: GBRAP_95_7052 (protein)
chain: EDDRLALESTVDVLETYLDLGDEEAARRAAREAVRLLKELGYDAVPDDISLETAKLLLRVAAETESPEDVEALLAALVAKADTEEEKRELRRVAEEALAA
B18: GBRAP_160_4225 (protein)
chain: SEVVEKLVKVFEEEMLEALELIEGESPEEQKVVLDVAAGNIILEAMEIEEATEEMEEVVDEKAEEAREELLEARDASREEQKKLIEEKVKELREELKKLA
B19: GBRAP_125_3016 (protein)
chain: SAEELAAAMALIARALGYSEADVEELAELTLAHGVKGTLIAIALAEGEEEIAELLEQLTEEEVAAVVLEAAAELRAHPDLTPEEVLALLRELAKRALAAS
B20: GBRAP_11_2728 (protein)
chain: KKEKLKELAEEAEKLAKEIAKLIKEGPTEEKLKELAKKAKELAKKAKEIGADKSIVDLLEIAAENLKEAIKDKSNTLEYLKNALAAARTAAGQLLLELEE
B21: GBRAP_11_2613 (protein)
chain: KKEILKEMAELAEEAARVLAELLRVGVDDEELRARARELLERLAELTKKYGDEADKTDVEVALELLEKMEADPERAEEYARQLLAALRVLAGNYLLDIEE
B22: GBRAP_160_4155 (protein)
chain: SEELKKLIKEIKELADEAIKMMEGETPEQAKTIARVTLGDILLLVEENPAVSEEAEDKIGAIADATEATLKANPDLTVEEVKALVKEARDKVVAILEEEA
B23: GBRAP_78_6660 (protein)
chain: KIEELLDKALKLARELRKLAKGLSPEIQNQAAEVEVLVGEALYLYEVEKASKEELIEELKEALEQAKKLLEQLKGVDEEAQKAAEKLIEALKKAIKELEK
B24: GBRAP_95_7020 (protein)
chain: EDDQLAADSLAEVLETYVELGEEEKARRAAEELVRVIAEDPSVRFPPDLSPEAARIVAEAARETLSREEAAAVLRRGAADAADPEVRAIFLEALAEVEAE
B25: GBRAP_52_5963 (protein)
chain: MEARMEALLDELLALRRAGDEAGAEALAREIAETLDDEELRLLGDVLVARIRASDLETAELLLDLAIMLADVLEELGRDPRLASDLLGRAAAAAYALEQA
B26: GBRAP_83_6904 (protein)
chain: ESVVAVNITPENGAARAAEAVDIVVEEGWSLEILVGTDPEEVAAVEDLFAALNASGKKVRVEVAVVGRDEAAVRAAAARIRAAAAAQPNVELERLDEVVL
B27: GBRAP_160_4290 (protein)
chain: KEEAERLKKEIEEIAEEAIEMMKGETREERVAIVRVAGGEVAMELIENENISDETVDRVLEIWDAVAETIAANPDLTDEEIEELIEKAREEAIKIVEEES
B28: GBRAP_160_4245 (protein)
chain: SEELEKIRRDIREEAEVALEALAEVPPSQWGAVLRAMAGNIVQIVIENPSMTDEMVEKVDELAEEMVERLLAARDASPEELRRLLEEGVERIIEEIEKML
B29: GBRAP_184_5027 (protein)
chain: TVLEAEIEAKDLAELEAKLAALAAEVKGSGADLVVSLKLENPTEEMVRTALAGLGAIKAAGNVSRVTVGFEGELSEELEEVALAAGDENGVNVVLPISDE

The full ranking holds about 4,500 sequences; the median of “median log2 fold change of GCK-ALFA target abundance (FLAG IP / Myc IP barcode read proportion)” is about 0.078, and the lowest 2% start at about -0.6. This is one part of the list.

Chain of GABARAP, O95166 (O95166 whole entry, the tested form may be a part): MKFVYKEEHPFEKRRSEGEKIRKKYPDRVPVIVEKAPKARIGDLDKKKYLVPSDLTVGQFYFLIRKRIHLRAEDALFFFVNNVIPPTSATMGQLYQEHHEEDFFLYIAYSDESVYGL

This assay concerns the target GABARAP, O95166. The assay is described as follows: median log2 fold change of GCK-ALFA target abundance (FLAG IP / Myc IP barcode read proportion) (log2 ratio); each designed protein is fused to an ALFA-tag nanobody in HEK293 cells to bring the named protein to FLAG-tagged glucokinase (GCK); Myc marks an untargeted standard; higher = target protein stabilised (more abundant). The following applies: target protein: 3xFLAG-MCP-GCK-ALFA reporter; HEK293 landing pad (RPLP). In a few lines:
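HEK293 landing-pad cells received a recombined binder library fused to the ALFA nanobody and were induced with 2 μg mL^−1 doxycycline, then transfected with a plasmid encoding a FLAG-tagged target and a Myc-tagged standard. Lysates were collected after 48 h for anti-FLAG and anti-Myc immunoprecipitation, and the circular RNA barcodes were reverse transcribed, amplified and sequenced. Target abundance for each binder is the median log2 ratio of FLAG to Myc barcode read proportions. Barcodes had to reach a proportion of at least 10^−7 in both replicates, each binder needed at least 3 barcodes per replicate, a pseudocount of 10^−6 was applied, and the two replicates were pooled.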
B1: the “median log2 fold change” value was -0.491.
The value for B2 was 0.223.
The value for B3 was -0.11.
As for B4, the “median log2 fold change” value is -0.218.
The value for B5 was -0.232.
Consider B6, for which the “median log2 fold change” value was determined as 0.168.
The value for B7 was -0.0129; that for B8 was 0.356.
Next, B9: 0.169; B10: 0.0746.
With B11, the “median log2 fold change” value worked out at 0.303.
Next, B12: 0.0489; B13: -0.0297; B14: -0.492.
The value for B15 was -0.25.
The value for B16 was -0.0151; that for B17 was 0.13.
Regarding B18, the “median log2 fold change” value was -0.48.
Consider B19, for which the “median log2 fold change” value is -0.274.
Next, B20: 0.0933; B21: 0.247.
Regarding B22, the “median log2 fold change” value is -0.546.
Next, B23: 0.268; B24: 0.146; B25: -0.635.
As for B26, the “median log2 fold change” value was -0.0179.
Take B27: the “median log2 fold change” value is -0.258.
For B28, the “median log2 fold change” value was 0.179.
Next, B29: 0.231.
